Measured values as given in PubChem BioAssay AID651820 (National Center for Advancing Translational Sciences (NCATS), 2012).
The campaign covered roughly 340,000 compounds. About 12,000 (3.5%) were called active. The shares of active, inactive and inconclusive entries below differ from those in the screen. Calls follow the shape of the dose curve; as a rule, active = well fitted inhibition curve with a large enough effect; inconclusive = small, poorly fitted or top-dose-only effect, or another doubt; inactive = no such curve, though single readings can be large or run the other way. Potencies of inconclusive entries are left out as doubtful fits.

assay: qHTS Assay for Inhibitors of Hepatitis C Virus (HCV); settings: Huh7.5.1 HCVcc-Cre (HCVcc is cell-culture hepatitis C virus) infection, luciferase reporter, 44 h; activity change, negative = inhibition: at 41.8 µM (top of the series)
In short: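 Seed cells (1,000/well) for 4 h; treat with compound and infect with HCVcc-Cre, moi about 0.5. Incubate 44 h, then detect luciferase activity.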
% is scaled to controls: 0 for no effect and ±100 for the full control effect; potency is read from the fitted curve at half-maximal effect; tags tell the direction and shape of the fitted curve.

| SMILES | activity change, negative = inhibition | Potency |
| --- | --- | --- |
| Cc1nnc(SCc2ccccn2)n(N)c1=O | inactive: 9.08% |  |
| N#C/C(=C\c1ccc(N2CCOCC2)o1)C(=O)NCCc1ccccc1 |  | inconclusive [inhibitor, single point] |
| CC(=O)C1C(c2cccc(F)c2)c2c(n[nH]c2C)CC1(C)O (stereo not given) | inactive: 6.31% |  |
| Cc1ccn2c(NC3CCCCC3)c(-c3cccc(SC4CCCCC4)c3)nc2c1 |  | inconclusive [inhibitor, partial curve, poor fit] |
| CCC1Oc2ccccc2N(CC(=O)NCCc2ccc(OC)c(OC)c2)C1=O (stereo not given) |  | inconclusive [inhibitor, single point] |
| CCOc1ccc(N/C=C/C(=O)c2ccc(OC)cc2)cc1 | inactive: -5.34% |  |
| Cc1ccccc1CN1CCN(C(=O)c2ccc(F)cc2)CC1 | inactive: -1.42% |  |
| COc1ccc(C2Nc3ccccc3C(=O)N2Cc2ccccc2)cc1CN1CCOCC1 (stereo not given) | inactive: -4.58% |  |
| NNc1nc2ccc(Cl)cc2s1 |  | inconclusive [inhibitor, single point] |
| CCOC(=O)Cc1csc(NC(=O)Nc2ccccc2)n1 |  | inconclusive [inhibitor, single point] |
| O=C(NCc1ccccn1)c1cccc(S(=O)(=O)NCc2ccccc2)c1 |  | inconclusive [inhibitor, single point] |
| CCOC(=O)c1c(C)[nH]c(C(=O)OCc2ccc(C)cc2)c1C |  | inconclusive [inhibitor, partial curve] |
| Cc1nn(Cc2ccccc2)c(N)c1C#N | inactive: -1.66% |  |
| CN(C)CCNC(=O)/C(=C/c1ccc(-c2cccc([N+](=O)[O-])c2)o1)NC(=O)c1ccccc1 |  | active: 10 µM |
| N#CCCn1cc(C(=O)NCc2ccccc2)c(-c2ccc3c(c2)OCCO3)n1 |  | inconclusive [inhibitor, partial curve] |
| CC1=C(N2CC2)C(=O)C(CO)=C(N2CC2)C1=O |  | inconclusive [inhibitor, full curve, poor fit] |
| O=C(NNc1ccccn1)C(c1ccccc1)c1ccccc1 | inactive: 11.9% |  |
| COc1ccc(CCn2c(C)nc3ccccc3c2=O)cc1OC | inactive: -0.274% |  |
| CCOc1ncccc1C(=O)OCC(=O)c1cccc(Br)c1 | inactive: -4.46% |  |
| Cc1ccc2cc(CN(c3cccc(C)c3C)S(=O)(=O)c3ccccc3)c(=O)[nH]c2c1 |  | inconclusive [inhibitor, single point] |
| COc1cc(S(=O)(=O)Nc2cccc(C)c2)ccc1NC(=O)c1ccncc1 |  | inconclusive [inhibitor, partial curve] |
| CCOC(=O)N1CCN(c2nc(-c3ccc(F)cc3)cs2)CC1 |  | inconclusive [inhibitor, full curve, poor fit] |
| O=C(COC(=O)c1ccncc1)Nc1cc(S(=O)(=O)N2CCOCC2)ccc1Cl | inactive: -1.01% |  |
| Oc1ccc(CNc2ccccc2)c2cccnc12 |  | inconclusive [inhibitor, partial curve] |

| SMILES | activity change, negative = inhibition | Potency |
| --- | --- | --- |
| Fc1ccc(C(CCCn2nnc(-c3cccnc3)n2)c2ccc(F)cc2)cc1 |  | inconclusive [inhibitor, single point] |
| O=C(Cc1n[nH]c(=O)c2ccccc12)Nc1cccc(S(=O)(=O)N2CCCC2)c1 |  | inconclusive [inhibitor, single point] |
| COc1ccc(/C=C2\Oc3cc(OCC(=O)N4CCC(C(=O)O)CC4)ccc3C2=O)c(OC)c1OC |  | inconclusive [inhibitor, partial curve, poor fit] |
| CCOc1cc(CNCCSc2nnnn2C)cc(Br)c1OCc1ccccc1F |  | inconclusive [inhibitor, single point] |
| Cc1cc2ncn(/N=C/c3cccnc3)c2cc1C |  | inconclusive [inhibitor, single point] |
| COc1ccc(C(=O)/C=C2/C(=O)Nc3ccccc32)cc1OC |  | inconclusive [inhibitor, partial curve] |
| CC(=O)Nc1cccc(C(=O)OCC(=O)c2ccc(S(=O)(=O)N3CCCCC3)cc2)c1 |  | inconclusive [inhibitor, single point] |
| CC(C)CN1CCN(Cc2cccc3cccnc23)CC1CCO (stereo not given) | inactive: -28.9% |  |
| COc1ccc(Nc2nc(NCc3ccco3)nc(N3CCOCC3)n2)cc1 |  | inconclusive [inhibitor, full curve] |
| COc1ccc([C@H]2CC(=O)C=C(c3cc(F)ccc3OC)C2)cc1 |  | inconclusive [inhibitor, partial curve] |
| COc1cc(OC)c2c(OC)cccc2n1 |  | inconclusive [inhibitor, single point] |
| COc1cccc(Oc2cn[nH]c2-c2ccc(OC)cc2O)c1 |  | active: 11.2 µM |
| CCOC(=O)c1sc2nc(C)nc(SCC(=O)N(CC)C3CCS(=O)(=O)C3)c2c1C (stereo not given) | inactive: -8.7% |  |
| CC(=O)c1c(C)[nH]c(C(=O)COC(=O)c2cccc(S(=O)(=O)N(C)c3ccccc3)c2)c1C |  | inconclusive [inhibitor, partial curve] |
| O=C(Cc1ccccc1)N1CCC2(CC1)NCCc1[nH]cnc12 |  | inconclusive [inhibitor, single point] |
| O=C(O)CCCC(=O)Nc1ccc2c(c1)oc1ccccc12 |  | inconclusive [inhibitor, single point] |
| CCN1C(=O)[C@H]2[C@@H](c3ccc(-c4ccccc4)cc3)N[C@@](CC(C)C)(C(=O)OC)[C@H]2C1=O | inactive: 0.733% |  |
| Cc1nn(-c2ccccc2)c(Cl)c1/C=C1\C(=O)N(C)C(=S)N1C |  | inconclusive [inhibitor, single point] |
| CCOc1ccc(S(=O)(=O)N2CCN(C(=O)C3CSC4(C)CCC(=O)N34)CC2)cc1 (stereo not given) | inactive: -5.47% |  |
| CC(=O)Nc1ccc(S(=O)(=O)N2CCN(S(=O)(=O)c3ccc(NC(C)=O)cc3)CC2)cc1 | inactive: -2.71% |  |
| CCOc1ccc(NC(=O)C2CC(=O)N(c3cc(C)cc(C)c3)C2)cc1 (stereo not given) |  | inconclusive [inhibitor, partial curve] |
| COc1ccc(CNCCC(c2ccc(OC(C)C)cc2)C(C)C)cc1OC (stereo not given) |  | active: 8.91 µM |
| c1ccc(N2CCN(c3nc4cc5c(cc4s3)OCCO5)CC2)cc1 |  | inconclusive [inhibitor, single point] |
| Cc1csc(NC(=O)CSc2nnc(CCNC(=O)c3cccs3)n2C)n1 | inactive: 17.1% |  |

| SMILES | activity change, negative = inhibition | Potency |
| --- | --- | --- |
| COc1ccc(C(=O)C23CC4CC(C2)CC(C(=O)c2ccc(OC)cc2)(C4)C3)cc1 |  | inconclusive [inhibitor, partial curve] |
| CN(CCCNC(=O)CCc1cn(C)c2ccccc12)C1CCCCC1 | inactive: -29.4% |  |
| Cc1ccc2nc(N(CCCN(C)C)C(=O)CS(=O)(=O)c3ccccc3)sc2c1 |  | inconclusive [inhibitor, single point] |
| O=C(CS(=O)CC(=O)NC12CC3CC(CC(C3)C1)C2)Nc1ccc(F)cc1 (stereo not given) | inactive: -10.3% |  |
| Cc1ccc(C(CNC(=O)Nc2ccc(Cl)cc2)N2CCN(C)CC2)cc1 (stereo not given) |  | active: 12.6 µM |
| Cc1oc(-c2ccccc2Cl)nc1CS(=O)(=O)CC(=O)NC(C)c1ccccc1 (stereo not given) |  | inconclusive [inhibitor, partial curve] |
| Cc1ccc(-c2csc3ncnc(Nc4ccc(N5CCOCC5)cc4)c23)cc1 |  | inconclusive [inhibitor, full curve, poor fit] |
| COc1cccc(S(=O)(=O)NCc2ccc(C(=O)N3CCN(Cc4ccccc4)CC3)cc2)c1 |  | active: 10 µM |
| Cc1ccc(OCC(=O)c2cc(C)n(C)c2C)c([N+](=O)[O-])n1 | inactive: 25.7% |  |
| CCc1nc(SCC(=O)Nc2cc(C)ccc2OC)c2c(C)c(C)sc2n1 |  | inconclusive [inhibitor, partial curve] |
| O=C(CCCNC(=O)/C(=C/c1ccccc1F)NC(=O)c1ccccc1)OCc1ccccc1 |  | inconclusive [inhibitor, single point] |
| CCc1ccc(Nc2n[n+](-c3ccccc3)c(-c3ccc(OC)c(Br)c3)s2)cc1 |  | inconclusive [inhibitor, single point] |
| COc1ccc([C@H]2CC(=O)C=C(c3ccc(OC)cc3OC)C2)cc1 |  | inconclusive [inhibitor, partial curve] |
| CCOc1ccccc1/C=C/C(=O)NCC(=O)N1CCC(N(C)C2CCCCC2C)CC1 (stereo not given) |  | inconclusive [inhibitor, single point] |
| COC(=O)c1sc(S(=O)(=O)Nc2ccc(C)c(C)c2)c(C(=O)OC)c1C |  | inconclusive [inhibitor, single point] |
| O=C(CSC1=NNC(c2ccccn2)S1)Nc1ccccc1 (stereo not given) |  | active: 14.1 µM |
| CC1CN(S(=O)(=O)c2cccc(-c3cn4ccccc4n3)c2)CC(C)O1 (stereo not given) |  | inconclusive [inhibitor, partial curve, poor fit] |
| CCc1ccc(OCC(=O)Nc2ccc(N3CCN(C(=O)c4ccccc4)CC3)cc2)cc1 | inactive: 0.539% |  |
| Cc1cccc(NC(=O)c2ccc(N3C(=O)C4C5C=CC(C6CC56)C4C3=O)cc2)c1 (stereo not given) |  | inconclusive [inhibitor, full curve] |
| CN1C(=O)C(C)(C)c2cc(S(=O)(=O)N3CCCC(C(=O)Nc4ccc(Cl)cc4)C3)ccc21 (stereo not given) |  | active: 11.2 µM |
| C=Cn1cc[n+](CC(=O)c2ccc(C)cc2)c1 | inactive: 4.75% |  |
| Cc1ccc(NC(=O)CN(C)C(=O)CSc2nc3ccccc3c(=O)n2CCO)cc1 |  | inconclusive [inhibitor, full curve, poor fit] |
